± gives the uncertainty stated by the source. In all, about 9,900 compounds were measured (“viability index relative to DMSO control”: median about 1, lowest 2% from about 0.85 on). This is one part of the list.

The subject of the assay is Plasmodium falciparum NF54 stage V gametocytes. Nature of the assay: viability index relative to DMSO control (fraction); higher = less gametocyte killing. To be noted: 2.5 µM, library set: Broad Institute DOS, incubation time: 72 h. In a few lines:
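In 1,536-well plates, 10 µl of serum-free medium holding P. falciparum NF54 stage V gametocytes (0.75% gametocytemia, 1.25% hematocrit) received compound at 2.5 µM for 72 hr at 37°C in low oxygen. After one to two hours with 3 µl of 2.5 µM MitoTracker Red CMXRos containing 0.13% saponin, red particles of 20–70 µm2 were counted in a single field per well. Viability index is reported as the particle count over the plate mean of wells treated with solvent only.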

For `CN1C(=O)c2cc(NC(=O)c3cccc(Cl)c3)ccc2OC[C@@H]2O[C@H](CC(=O)NC3CCCCC3)CC[C@@H]21`, the viability index turned out to be 0.9672 ± 0.0088.

For the compound `Cc1noc(C)c1NC(=O)N1C[C@H](O)COC[C@H]2O[C@@H](CC(=O)NCC3CC3)CC[C@@H]21`, the viability index was found to be 1.027 ± 0.0027.

As for `COc1ccc(NC(=O)N(C)C[C@H]2Oc3c(NC(=O)CCCCCC(=O)Nc4ccccc4N)cccc3C(=O)N([C@@H](C)CO)C[C@H]2C)cc1`, the viability index stood at 0.645 ± 0.046.

As to `C/C=C/c1cnc2c(c1)C(=O)N([C@@H](C)CO)C[C@@H](C)[C@H](CN(C)C(=O)Nc1cccc(OC)c1)O2`, the viability index was 1 ± 0.061.

`C[C@H](CO)N1C[C@H](C)[C@H](CN(C)S(C)(=O)=O)Oc2ccc(NC(=O)Nc3ccc(F)cc3)cc2CC1=O` gave a viability index of 0.907 ± 0.2.

`Cc1ccc(S(=O)(=O)Nc2ccc3c(c2)C(=O)N(C)[C@H]2CC[C@@H](CC(=O)NCCc4ccncc4)O[C@@H]2CO3)cc1`: the viability index was determined as 0.953 ± 0.054.

In turn, `C[C@H]1CN([C@@H](C)CO)C(=O)CCCn2nncc2CO[C@@H]1CN(C)C(=O)c1cc(-c2ccccc2)on1` showed a viability index of 1.06 ± 0.047.

`CC1C=NC(S(=O)(=O)N2CC[C@@H]3[C@H](CO)N(C)c4ccc(C#Cc5cccnc5)cc4[C@@H]32)=N1` (some centres undefined) came in with a viability index of 1.08 ± 0.047.

As to `CCCN1C[C@@H](C)[C@@H](OC)CN(C)C(=O)c2ccc(NS(=O)(=O)c3cn(C)cn3)cc2OC[C@H]1C`, the viability index came out at 1.03 ± 0.12.

Compound `CCS(=O)(=O)N1C[C@@]2(C1)CN(Cc1cccc(Cl)c1)[C@@H](CO)c1c2c2ccc(OC)cc2n1C` came in with a viability index of 1 ± 0.041.

`COc1ccc(NC(=O)N(C)C[C@H]2OCc3ccccc3-c3ccccc3C(=O)N([C@@H](C)CO)C[C@H]2C)c(OC)c1`: the viability index amounted to 0.978 ± 0.057.

Turning to `C[C@H](CO)N1C[C@H](C)[C@H](CN(C)C(=O)Nc2ccc(-c3cccs3)cc2)OCc2cnnn2CCCC1=O`, the viability index amounted to 0.957 ± 0.1.

For the compound `O=C(C[C@H]1CC[C@H]2[C@@H](COC[C@H](O)CN2C(=O)c2ccccc2F)O1)NCc1ccc(Cl)c(Cl)c1`, the viability index worked out at 1.116 ± 0.0021.

Regarding `C[C@@H]1CN([C@H](C)CO)C(=O)c2cc(-c3ccc(C#N)cc3)cnc2O[C@H]1CN(C)Cc1cccnc1`, the viability index came out at 1.07 ± 0.037.

As for `CCCNC(=O)N1[C@H](C#N)[C@@H](c2ccccc2-c2ccc(OC)cc2)[C@@H]1CO`, the viability index amounted to 1.04 ± 0.11.

On to `CN1C(=O)c2cc(NC(=O)Cc3cccs3)ccc2OC[C@@H]2O[C@H](CC(=O)NCCc3ccncc3)CC[C@@H]21`, for which the viability index was found to be 1.13 ± 0.15.

In turn, `CCCC(=O)N1C[C@@]2(C1)CN(Cc1cccnc1)[C@@H](CO)c1[nH]c3cc(OC)ccc3c21` gave a viability index of 0.978 ± 0.11.

In turn, `C[C@H]1CN([C@@H](C)CO)C(=O)c2cc(NC(=O)NC3CCCCC3)ccc2O[C@H]1CN(C)S(C)(=O)=O` had a viability index of 1.02 ± 0.09.

As to `COc1ccc2c3c([nH]c2c1)[C@@H](CO)N(Cc1ccccc1OC)C[C@]31CN(C1)C(C)=O`, the viability index is 1.058 ± 0.006.

Compound `O=C(NC[C@H]1[C@H](c2ccccc2)[C@@H](CO)N1C(=O)C1CCC1)NC1CCCC1` returned a viability index of 0.97 ± 0.012.

In turn, `O=C(c1ccncc1)N1C[C@H]2[C@@H](c3ccccc31)[C@@H](CO)N2C(=O)CN1CCOCC1` registered a viability index of 1.01 ± 0.21.

Consider `Cc1nn(C)cc1NC(=O)C[C@H]1CC[C@@H]2[C@H](COc3ccc(NC(=O)C4CCOCC4)cc3C(=O)N2C)O1`, for which the viability index came out at 1.02 ± 0.069.

Compound `C[C@H]1CN([C@@H](C)CO)C(=O)c2ccccc2-c2ccccc2CO[C@@H]1CN(C)S(=O)(=O)c1cccc(C#N)c1` had a viability index of 1 ± 0.081.

On to `O=C(Nc1ccc2c(c1)[C@@H]1C[C@H](CC(=O)N3CCCCC3)O[C@@H](CO)[C@@H]1O2)NC1CCCCC1`, for which the viability index came to 0.9547 ± 0.008.

In turn, `O=C(C1CC1)N1CC[C@@H]2[C@H]1c1cc(Br)ccc1N[C@@H]2CO` displayed a viability index of 1.08 ± 0.031.

On to `O=C(Cc1ccccc1)N1C[C@@H]2[C@H](c3ccccc31)[C@H](CO)N2S(=O)(=O)c1ccccc1`, for which the viability index worked out at 1.03 ± 0.031.

Regarding `C[C@H](CO)N1C[C@H](C)[C@H](CN(C)S(=O)(=O)c2ccccc2C#N)OCc2cnnn2CCCC1=O`, the viability index was determined as 1.08 ± 0.066.

`Cc1noc(C)c1NC(=O)N1C[C@H](O)COC[C@H]2O[C@H](CC(=O)NCC3CC3)CC[C@@H]21` yielded a viability index of 0.995 ± 0.042.

In turn, `C[C@H](NC(=O)C[C@H]1CC[C@H]2[C@H](COc3ccc(NC(=O)C4CCOCC4)cc3C(=O)N2C)O1)c1ccccc1` displayed a viability index of 1.14 ± 0.052.

Compound `C[C@H]1CN([C@@H](C)CO)S(=O)(=O)c2ccc(C#CCC3CCCC3)cc2O[C@@H]1CN(C)C(=O)c1cnccn1` gave a viability index of 0.99 ± 0.046.

For the compound `O=C(CC1CC1)N1CC(=O)N2[C@@H](CO)[C@H](c3ccc(C#Cc4cccc(F)c4)cc3)[C@@H]2C1`, the viability index was 1.05 ± 0.058.

With `C[C@@H]1CN([C@@H](C)CO)C(=O)Cc2cc(NS(=O)(=O)c3cccs3)ccc2O[C@@H]1CN(C)CC1CCCCC1`, the viability index is 0.969 ± 0.23.

Compound `Cc1noc(C)c1S(=O)(=O)N(C)C[C@@H]1Oc2ccc(NC(=O)c3ccncc3)cc2CC(=O)N([C@@H](C)CO)C[C@@H]1C` had a viability index of 1.04 ± 0.026.

As for `COCC(=O)N1[C@H](C#N)[C@H](c2ccccc2-c2cccc(C)c2)[C@@H]1CO`, the viability index came out at 1.08 ± 0.023.

These data come from the supplement of paper PMC4723716.
